In the supplement of paper PMC3334620:
The full ranking holds about 33,000 sequences; the median of “E-score (-0.5 to 0.5)” is about -0.016, and the highest 2% start at about 0.32. The list shows a part of the results.

The sequences below were run against T1, Stp1 (UniProt B3LFK1) (assay: PBM E-score (8-mer binding enrichment) (E-score (-0.5 to 0.5)); higher = stronger / more preferred TF binding; most listed sequences are background and not binding sites). Details: protein concentration: 200 nM; construct: GST-full length.
T1 sequence: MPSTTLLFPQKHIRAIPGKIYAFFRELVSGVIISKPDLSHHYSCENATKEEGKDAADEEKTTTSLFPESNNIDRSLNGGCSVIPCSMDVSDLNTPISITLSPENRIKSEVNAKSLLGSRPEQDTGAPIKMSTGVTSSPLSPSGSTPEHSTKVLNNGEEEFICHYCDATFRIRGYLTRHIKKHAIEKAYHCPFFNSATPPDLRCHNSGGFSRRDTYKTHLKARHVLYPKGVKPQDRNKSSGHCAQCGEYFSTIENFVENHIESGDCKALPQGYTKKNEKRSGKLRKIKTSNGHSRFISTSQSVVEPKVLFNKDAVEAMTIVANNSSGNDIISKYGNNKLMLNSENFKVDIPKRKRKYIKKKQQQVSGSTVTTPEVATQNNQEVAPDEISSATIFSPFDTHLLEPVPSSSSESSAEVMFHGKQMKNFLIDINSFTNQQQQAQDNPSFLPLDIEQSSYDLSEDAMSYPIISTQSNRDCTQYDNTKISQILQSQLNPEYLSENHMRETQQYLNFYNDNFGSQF
Outline: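 PURExpress in vitro transcription/translation supplied GST-tagged yeast transcription factors, either full-length or DNA-binding domain. Applied at about 100-200 nM to universal all-10-mer Agilent arrays double-stranded by primer extension, the bound protein was detected with fluorescent anti-GST. E-scores, modified Wilcoxon-Mann-Whitney statistics, were given by the Universal PBM Analysis Suite to ungapped eight-base words pooled with their reverse complements after masliner normalisation.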

Row | Sequence | PBM E-score
1 | GTGCTAAC | -0.0443
2 | AATTTACC | 0.052
3 | CTCCCGTA | -0.0725
4 | AGCCGAAA | 0.0823
5 | GGCTTGCA | 0.0669
6 | CGCTGACA | 0.0619
7 | TGGATTAA | 0.0615
8 | CTGACACC | -0.106
9 | ACAATGCT | -0.0829
10 | ACGGACCA | 0.159
11 | ACATAGAG | -0.134
12 | CAGGAAGA | -7e-05
13 | ACGTCTGA | -0.0596
14 | CGTGCCTC | 0.398
15 | GCACTTAC | 0.044
16 | TAAGGACA | 0.146
17 | GAACTGAA | 0.0626
18 | AGTCCGGC | -0.043
19 | ATCATATA | 0.171
20 | CCACAATC | -0.168
21 | CTCCTATA | -0.118
22 | CTTCCAGC | -0.0829
23 | TCGAAACA | 0.116
24 | CTCCTCAG | -0.248
25 | GTCATCGA | -0.152

Row | Sequence | PBM E-score
26 | TCCGTCGA | -0.0144
27 | ACTCGAGA | 0.0305
28 | CAGGGGCC | -0.151
29 | GCGGGCAC | 0.142
30 | CTATAAGA | -0.0839
31 | ACCACCAG | -0.0367
32 | GCCCTTAC | -0.163
33 | CTCGAGTA | 0.0278
34 | CTTGTAAC | 0.203
35 | AGGTTACG | -0.0798
36 | AGAGGTCG | -0.096
37 | AGCTTTTC | -0.209
38 | CGGAGGTA | -0.168
39 | GGCGCGCA | 0.318
40 | TCCTGCGA | -0.00958
41 | ATGCTTTA | 0.0367
42 | ATTTCAGC | -0.0721
43 | CTGACATC | -0.00511
44 | CTTTTGGC | -0.0246
45 | AATGCAAC | 0.0268
46 | ATACTTAA | 0.0997
47 | TAATTCGA | 0.0127
48 | AATACTTA | 0.0613
49 | TACGAGGA | -0.14
50 | CCGCAGTA | 0.0872

Row | Sequence | PBM E-score
51 | ACATTAGT | -0.012
52 | GTAAGCAA | 0.098
53 | ACCTGGGA | -0.202
54 | CAGTTTAA | 0.0106
55 | GAGGTACC | -0.211
56 | CTGCCATC | -0.103
57 | AAGTGGTC | -0.0657
58 | CGCATCTA | 0.11
59 | CATGTCCC | -0.149
60 | AAATTATG | 0.146
61 | ATTCTGTA | -0.0804
62 | AGAAGTAA | 0.167
63 | CGACACCC | -0.329
64 | ACCCGCTA | -0.213
65 | AACGTGAC | -0.0663
66 | CGGATTGA | -0.0976
67 | CGGTAGAA | -0.0973
68 | ATTGACGG | -0.0563
69 | TGCAATAA | 0.162
70 | GATCAGCC | -0.183
71 | CCGTTAAG | 0.0535
72 | AATGATGC | 0.108
73 | AGCAAAAC | -0.0569
74 | AATCAGTG | -0.131
75 | AGCGGATC | 0.00559

Row | Sequence | PBM E-score
76 | AGTTTGGG | 0.0216
77 | GGTTGACA | -0.0134
78 | ACATAACT | 0.0357
79 | CACACCGA | -0.00909
80 | CAGGTAAA | 0.0828
81 | CGTCGTTC | 0.107
82 | CAGGGACC | -0.449
83 | ACCAACCA | -0.0383
84 | ACAGGGAT | -0.0529
85 | ATCGAAGC | 0.0408
86 | CATGCGAG | -0.00999
87 | AAGAAAGG | 0.125
88 | AGCTTCAG | -0.29
89 | AGAAAATG | 0.0252
90 | GCTGAGCC | 0.187
91 | CCGGGGCA | -0.151
92 | AAAACCCT | -0.17
93 | CCATTCAC | -0.0255
94 | CCTGGGTA | -0.174
95 | CATGAGAA | 0.0807
96 | CTTCCGTC | 0.0795
97 | AGCCCCAT | -0.163
98 | CCATGGGA | -0.224
99 | CCACCAAA | 0.0371
100 | ACCGTATG | 0.182

Row | Sequence | PBM E-score
101 | ACCAAGAT | -0.0294
102 | AGTGAAGG | -0.189
103 | ACTCGGCG | 0.223
104 | CTTGCTAA | -0.102
105 | CCATCTAG | -0.186
106 | CGTTTACA | 0.0891
107 | GATACTGA | 0.0896
108 | GCTGCTAC | -0.0577
109 | GGGCCGAC | -0.204
110 | CCCATTAC | -0.146
111 | CATTCAGG | -0.177
112 | AATGTGGA | 0.0474
113 | GTGAAGCA | -0.0566
114 | GCCAAAGA | -0.0782
115 | ATATGATC | 0.143
116 | AGAGCGGC | 0.307
117 | ATTGCCAA | -0.0869
118 | GACGGGTA | -0.315
119 | CATAGGGC | 0.152
120 | ACAGGCAA | 0.0874
121 | ATGACTAA | -0.0612
122 | CCTGGGGA | -0.337
123 | CGGTGTGA | -0.0591
124 | GAATGCGC | 0.0126
125 | GTAGACAC | 0.0442

Row | Sequence | PBM E-score
126 | CAAGAGCG | 0.0688
127 | ACCGATGC | 0.0462
128 | GTATTAGA | 0.108
129 | GCGGAGCC | 0.276
130 | GGCTCACC | -0.133
131 | TGCAACAA | 0.0328
132 | ATCGGGCA | -0.28
133 | TCAAACCA | -0.00071
134 | CACTCTAC | 0.121
135 | ACCAGCAG | -0.215
136 | CGGTGGTC | -0.149
137 | ACATTCAT | -0.0289
138 | AGCCAGGA | 0.00952
139 | AATTCAAG | 0.0237
140 | ACTTGGGA | -0.208
141 | GCTCAAAA | 0.112
142 | CTCTATCC | -0.0874
143 | GGTTCTAC | -0.148
144 | CTTGCTCC | -0.0209
145 | GTCGACTA | 0.157
146 | CATATGTC | -0.208
147 | ATACCACC | 0.00929
148 | CATGCTAG | -0.216
149 | ATAAGATG | 0.158
150 | CTGATAGA | -0.0315

Row | Sequence | PBM E-score
151 | CATGCTGC | -0.143
152 | ATTTTCTC | 0.0415
153 | AGTAGCCA | -0.155
154 | AGATTCGA | -0.0415
155 | AAAGACCT | -0.0698
156 | GATTGATA | 0.025
157 | GGCATGCC | 0.255
158 | CTCATGCA | -0.0421
159 | TTATTAAA | 0.18
160 | AAGGTGCA | -0.0167
161 | CGTAGTCC | -0.155
162 | AACGTCAA | 0.0741
163 | CTTGTGAA | 0.104
164 | AAACGCCA | 0.345
165 | AATATGGT | 0.081
166 | ATAGGACC | -0.261
167 | AACGGGGC | 0.186
168 | CTCAAGTC | -0.224
169 | CCCTTATA | -0.15
170 | AAGGAAAG | -0.12
171 | GGTTCCTA | -0.092
172 | ACAAGAGG | 0.103
